Source: US7517874B2 (priority 2007, dated 2009)

The compounds below were run against human CB2 receptor (hCB2) (Homo sapiens, UniProt P34972) (assay: cell-based). Conditions: not given.
Assay type: cell-based

Sequence of human CB2 receptor (hCB2) (P34972 whole entry): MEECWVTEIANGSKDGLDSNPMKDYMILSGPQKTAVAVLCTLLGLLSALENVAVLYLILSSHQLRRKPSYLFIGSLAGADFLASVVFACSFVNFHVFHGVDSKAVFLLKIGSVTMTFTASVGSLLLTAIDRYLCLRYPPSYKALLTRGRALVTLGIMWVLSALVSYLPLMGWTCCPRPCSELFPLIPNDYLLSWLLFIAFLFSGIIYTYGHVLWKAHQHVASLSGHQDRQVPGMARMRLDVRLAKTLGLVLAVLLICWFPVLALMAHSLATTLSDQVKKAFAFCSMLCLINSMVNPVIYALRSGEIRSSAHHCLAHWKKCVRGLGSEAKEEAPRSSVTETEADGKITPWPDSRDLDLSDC

Structure (SMILES)	EC50 [nM]
O=C(NN1CCCCC1)c1nc(-c2ccccc2)n2c1CNCC2 [Compound 44, 3-phenyl-N-(piperidin-1-yl)-5,6,7,8-tetrahydroimidazo[1,5-a]pyrazine-1-carboxamide]	> 10000
CNC(=O)[C@@H](NC(=O)c1nc(C2=CCCCCC2)n2c1CN(C)CCC2)C(C)(C)C [Compound 457, (S,E)-3-cycloheptenyl-N-(3,3-dimethyl-1-(methylamino)-1-oxobutan-2-yl)-8-methyl-6,7,8,9-tetrahydro-5H-imidazo[1,5-a][1,4]diazepine-1-carboxamide]	> 10000
CCCN1CCn2c(-c3ccccc3)nc(C(=O)Nc3ccccc3)c2C1 [Compound 154, N,3-diphenyl-7-propyl-5,6,7,8-tetrahydroimidazo[1,5-a]pyrazine-1-carboxamide]	> 10000
CCCNC(=O)N1CCn2c(-c3ccccc3)nc(C(=O)N[C@H](C(=O)NC)C(C)(C)C)c2C1 [Compound 193, (S)-N1-(3,3-dimethyl-1-(methylamino)-1-oxobutan-2-yl)-3-phenyl-N7-propyl-5,6-dihydroimidazo[1,5-a]pyrazine-1,7(8H)-dicarboxamide]	> 10000
CNC(=O)[C@@H](NC(=O)c1nc(-c2ccc(S(C)(=O)=O)cc2)n2c1CN(C)CCC2)C(C)(C)C [Compound 379, (S)-N-(3,3-dimethyl-1-(methylamino)-1-oxobutan-2-yl)-8-methyl-3-(4-(methylsulfonyl)phenyl)-6,7,8,9-tetrahydro-5H-imidazo[1,5-a][1,4]diazepine-1-carboxamide]	> 10000
CNC(=O)[C@@H](NC(=O)c1nc(-c2ccccc2)n2c1CN(S(=O)(=O)c1ccc(F)cc1)CCC2)C(C)(C)C [Compound 464, (S)-N-(3,3-dimethyl-1-(methylamino)-1-oxobutan-2-yl)-8-(4-fluorophenylsulfonyl)-3-phenyl-6,7,8,9-tetrahydro-5H-imidazo[1,5-a][1,4]diazepine-1-carboxamide]	> 10000

Same assay, conditions: agonist or inverse agonist at hCB2

Structure (SMILES)	+/− HCB2
CNC(=O)[C@@H](NC(=O)c1nc(-c2ccccc2)n2c1CN(C)CCC2)c1ccccc1 [Compound 543, (S)-8-methyl-N-(2-(methylamino)-2-oxo-1-phenylethyl)-3-phenyl-6,7,8,9-tetrahydro-5H-imidazo[1,5-a][1,4]diazepine-1-carboxamide]	+
CC(C)(C)CNC(=O)c1nc(-c2ccccc2)n2c1CN(S(=O)(=O)c1ccccc1)CC2 [Compound 104, N-neopentyl-3-phenyl-7-(phenylsulfonyl)-5,6,7,8-tetrahydroimidazo[1,5-a]pyrazine-1-carboxamide]	−
C/C=C/c1nc(C(=O)N[C@H](C(=O)NC)C(C)(C)C)c2n1CCCN(C)C2 [Compound 376, (S,E)-N-(3,3-dimethyl-1-(methylamino)-1-oxobutan-2-yl)-8-methyl-3-(prop-1-enyl)-6,7,8,9-tetrahydro-5H-imidazo[1,5-a][1,4]diazepine-1-carboxamide]	+
CNC(=O)[C@@H](NC(=O)c1nc(-c2cc(Cl)c(C)cc2F)n2c1CN(C)CCC2)C(C)(C)C [Compound 357, (S)-3-(5-chloro-2-fluoro-4-methylphenyl)-N-(3,3-dimethyl-1-(methylamino)-1-oxobutan-2-yl)-8-methyl-6,7,8,9-tetrahydro-5H-imidazo[1,5-a][1,4]diazepine-1-carboxamide]	+
CNC(=O)[C@@H](NC(=O)c1nc(C(O)C2CC2)n2c1CN(C)CC2)C(C)(C)C (stereo partly drawn) [Compound 296, 3-(cyclopropyl(hydroxy)methyl)-N-((S)-3,3-dimethyl-1-(methylamino)-1-oxobutan-2-yl)-7-methyl-5,6,7,8-tetrahydroimidazo[1,5-a]pyrazine-1-carboxamide]	+
CNC(=O)[C@@H](NC(=O)c1nc(-c2cc(Cl)ccc2OC)n2c1CN(C)CCC2)C(C)(C)C [Compound 327, (S)-3-(5-chloro-2-methoxyphenyl)-N-(3,3-dimethyl-1-(methylamino)-1-oxobutan-2-yl)-8-methyl-6,7,8,9-tetrahydro-5H-imidazo[1,5-a][1,4]diazepine-1-carboxamide]	+
CNC(=O)[C@@H](NC(=O)c1nc(/C=C/CCO)n2c1CN(C)CCC2)C(C)(C)C [Compound 514, (S,E)-N-(3,3-dimethyl-1-(methylamino)-1-oxobutan-2-yl)-3-(4-hydroxybut-1-enyl)-8-methyl-6,7,8,9-tetrahydro-5H-imidazo[1,5-a][1,4]diazepine-1-carboxamide]	+
CNC(=O)[C@@H](NC(=O)c1nc(-c2ccccc2)n2c1CN(CC(C)C)CC2)C(C)(C)C [Compound 148, (S)-N-(3,3-dimethyl-1-(methylamino)-1-oxobutan-2-yl)-7-isobutyl-3-phenyl-5,6,7,8-tetrahydroimidazo[1,5-a]pyrazine-1-carboxamide]	−
CCS(=O)(=O)N1CCn2c(-c3ccccc3)nc(C(=O)N[C@H](C)C3CCCCC3)c2C1 [Compound 111, (R)-N-(1-cyclohexylethyl)-7-(ethylsulfonyl)-3-phenyl-5,6,7,8-tetrahydroimidazo[1,5-a]pyrazine-1-carboxamide]	+
CN1CCn2c(-c3ccccc3)nc(C(=O)N[C@H](C(=O)N(C)C)C(C)(C)C)c2C1 [Compound 79, (S)-N-(1-(dimethylamino)-3,3-dimethyl-1-oxobutan-2-yl)-7-methyl-3-phenyl-5,6,7,8-tetrahydroimidazo[1,5-a]pyrazine-1-carboxamide]	+
CNC(=O)[C@@H](NC(=O)c1nc(C2CCCCO2)n2c1CN(C)CCC2)C(C)(C)C (stereo partly drawn) [Compound 504, N-((S)-3,3-dimethyl-1-(methylamino)-1-oxobutan-2-yl)-8-methyl-3-(tetrahydro-2H-pyran-2-yl)-6,7,8,9-tetrahydro-5H-imidazo[1,5-a][1,4]diazepine-1-carboxamide]	+
CNC(=O)[C@@H](NC(=O)c1nc(-c2cc(F)cc(OC)c2)n2c1CN(C)CCC2)C(C)(C)C [Compound 384, (S)-N-(3,3-dimethyl-1-(methylamino)-1-oxobutan-2-yl)-3-(3-fluoro-5-methoxyphenyl)-8-methyl-6,7,8,9-tetrahydro-5H-imidazo[1,5-a][1,4]diazepine-1-carboxamide]	+
CC(C)CN1CCn2c(-c3ccccc3)nc(C(=O)N[C@@H](C)c3ccccc3)c2C1 [Compound 145, (S)-7-isobutyl-3-phenyl-N-(1-phenylethyl)-5,6,7,8-tetrahydroimidazo[1,5-a]pyrazine-1-carboxamide]	−
CNC(=O)[C@@H](NC(=O)c1nc(-c2cc(C)ccc2Cl)n2c1CN(C)CCC2)C(C)(C)C [Compound 335, (S)-3-(2-chloro-5-methylphenyl)-N-(3,3-dimethyl-1-(methylamino)-1-oxobutan-2-yl)-8-methyl-6,7,8,9-tetrahydro-5H-imidazo[1,5-a][1,4]diazepine-1-carboxamide]	+
CCN1CCn2c(-c3ccccc3)nc(C(=O)NCC3CCOCC3)c2C1 [Compound 168, 7-ethyl-3-phenyl-N-((tetrahydro-2H-pyran-4-yl)methyl)-5,6,7,8-tetrahydroimidazo[1,5-a]pyrazine-1-carboxamide]	+
CNC(=O)[C@@H](NC(=O)c1nc(C2CCCC2)n2c1CN(C)CCC2)C(C)(C)C [Compound 497, (S)-3-cyclopentyl-N-(3,3-dimethyl-1-(methylamino)-1-oxobutan-2-yl)-8-methyl-6,7,8,9-tetrahydro-5H-imidazo[1,5-a][1,4]diazepine-1-carboxamide]	+
CNC(=O)[C@@H](NC(=O)c1nc(C2CCCCC2)n2c1CN(C)CC2)C(C)(C)C [Compound 305, (S)-3-cyclohexyl-N-(3,3-dimethyl-1-(methylamino)-1-oxobutan-2-yl)-7-methyl-5,6,7,8-tetrahydroimidazo[1,5-a]pyrazine-1-carboxamide]	+
CNC(=O)[C@@H](NC(=O)c1nc(C2CC2)n2c1CN(C)CCC2)C(C)(C)C [Compound 435, (S)-3-cyclopropyl-N-(3,3-dimethyl-1-(methylamino)-1-oxobutan-2-yl)-8-methyl-6,7,8,9-tetrahydro-5H-imidazo[1,5-a][1,4]diazepine-1-carboxamide]	+
CNC(=O)[C@@H](NC(=O)c1nc(CCCOC)n2c1CN(C)CCC2)C(C)(C)C [Compound 489, (S)-N-(3,3-dimethyl-1-(methylamino)-1-oxobutan-2-yl)-3-(3-methoxypropyl)-8-methyl-6,7,8,9-tetrahydro-5H-imidazo[1,5-a][1,4]diazepine-1-carboxamide]	+
CC12CCC(C1)C(C)(C)C2NC(=O)c1nc(-c2ccccc2)n2c1CN(CCO)CC2 (centres unmarked) [Compound 143, 7-(2-hydroxyethyl)-3-phenyl-N-(1,3,3-trimethylbicyclo[2.2.1]heptan-2-yl)-5,6,7,8-tetrahydroimidazo[1,5-a]pyrazine-1-carboxamide]	+
CNC(=O)[C@@H](NC(=O)c1nc(-c2cccc(C)c2)n2c1CNCC2)C(C)(C)C [Compound 8, (S)-N-(3,3-dimethyl-1-(methylamino)-1-oxobutan-2-yl)-3-m-tolyl-5,6,7,8-tetrahydroimidazo[1,5-a]pyrazine-1-carboxamide]	+

Same assay, conditions: groups >100 nM-10 μM and >10 μM; cAMP, CHO-K1 hCB2; read-out: EC50 HCB2

Structure (SMILES)	EC50 [nM]
CCS(=O)(=O)N1CCn2c(-c3ccccc3)nc(C(=O)NCC3CCOCC3)c2C1 [Compound 117, 7-(ethylsulfonyl)-3-phenyl-N-((tetrahydro-2H-pyran-4-yl)methyl)-5,6,7,8-tetrahydroimidazo[1,5-a]pyrazine-1-carboxamide]	> 10000
O=C(NC1CCCCC1)c1nc(-c2ccccc2)n2c1CN(C(=O)c1ccoc1)CC2 [Compound 138, N-cyclohexyl-7-(furan-3-carbonyl)-3-phenyl-5,6,7,8-tetrahydroimidazo[1,5-a]pyrazine-1-carboxamide]	> 10000
